The values below come from the supplement of paper PMC12217912.

B1: TEV protease; numbered along this chain (parent)
chain: MGESLFKGPRDYNPISSSICHLTNESDGHTTSLYGIGFGPFIITNKHLFRRNNGTLVVQSLHGVFKVKDTTTLQQHLVDGRDMIIIRMPKDFPPFPQKLKFREPQREERICLVTTNFQTKSMSSMVSDTSCTFPSGDGIFWKHWIQTKDGQCGSPLVSTRDGFIVGIHSASNFTNTNNYFTSVPKNFMELLTNQEAQQWVSGWRLNADSVLWGGHKVFMVKPEEPFQPVKEATQL

Some of the results follow. The full chains were built here from the parent and the listed change. Values near 0.05 are background.
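Also: Bxb1 expression induced with 0.2% (w/v) L-rhamnose at OD600 near 0.5, cultures sampled hourly, flipped fraction per protease–substrate barcode pair counted by paired-end Illumina sequencing.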

This assay covers variants of B1. The assay can be described thus: raw area under fraction-flipped curve 0-4 h after induction (AUC4h, not background-subtracted), DNA-recorder readout of cleavage of the substrate (dimensionless); higher = more cleavage of the substrate by the protease variant. As to conditions: temperature: 34 °C; time window: 0-4 h after rhamnose induction.
On to MGESLFKGPRDYNPISSSICHLTNESDGHTTSLYGIGFGPFIITNKHLFRRNNGTLVVQSLHGVFKVKDTTTLQQHLVDGRDMIIIRMPKDFPPFPQKLKFREPQREERICLVTTNFQTKSMSSMVSDTSCTFPSGDGIFWKHWIQTKDGQCQSPLVSTRDGFIVGIHSASNFTNTNNYFTSVPKNFMELLTNQEAQQWVSGWRLNADSVLWGGHKVFMVKPEEPFQPVKEATQL [G153Q], for which the “area with substrate INLYFQS” value is 0.0695, the “area with substrate NNLYFQS” value turned out to be 0.0302 and the “area with substrate TNLYFQS” value was determined as 0.0301.
With MGESLFKGPRDYNPISSSICHLTNESDGHTTSLYGIGFGPFIITNKHLFRRNNGTLVVQSLHGVFKVKDTTTLQQHLVDGRDMIIIRMPKDFPPFPQKLKFREPQREERICLVTTNFQTKSMSSMVSDTSCTFPSGDGIFWKHWIQTKDGQCGSPLVSTRDGFIVGIHSASNFTNTNNYFTSVPKHFMELLTNQEAQQWVSGWRLNADSVLWGGHKVFMVKPEEPFQPVKEATQL [N186H], the “area with substrate INLYFQS” value was determined as 0.0577.
On to MGESLFKGPRDYNPISSSICHLTNESDGHTTSLYGIGFGPFIITNKHLFRRNNGTLVVQSLHGVFKVKDTTTLQQHLVDGRDMIIIRMPKDFPPFPQKLKFREPQREERICLVTTNFQTKSMSSMVSDTSCTFPSGDGIFWKHWIQTKDGQCGSPLVSTRDGFIVGIHSASNFTNTNQYFTSVPKNFMELLTNQEAQQWVSGWRLNADSVLWGGHKVFMVKPEEPFQPVKEATQL [N178Q], for which the “area with substrate KNLYFQS” value was determined as 0.062, the “area with substrate LNLYFQS” value came out at 0.0767, the “area with substrate PNLYFQS” value came to 0.0689 and the “area with substrate WNLYFQS” value is 0.0698. Moreover, the “area with substrate YNLYFQS” value stood at 0.0867.
MGESLFKGPRDYNPISSSICHLTNESDGHTTSLYGIGFGPFIITNKHLFRRNNGTLVVQSLHGVFKVKDTTTLQQHLVDGRDMIIIRMPKDFPPFPQKLKFREPQREERICLVTTNFQTKSMSSMVSDTSCTFPSGDGIFWKHWIQTKDGQCGSPLVSTRDGFIVGIHSASNFTNTNNYFTSVPKNFMELLTNQEAQQWVSGWRLNADSVLWGGHKVIMVKPEEPFQPVKEATQL [F218I]: the “area with substrate INLYFQS” value was determined as 0.0523, the “area with substrate MNLYFQS” value was determined as 0.0589, the “area with substrate NNLYFQS” value was 0.0485 and the “area with substrate TNLYFQS” value came out at 0.0566. For the same variant, the “area with substrate WNLYFQS” value was found to be 0.0638.
Take MGESLFKGPRDYNPISSSICHLTNESDGHTTSLYGIGFGPFIITNKHLFRRNNGTLVVQSLHGVFKVKDTTTLQQHLVDGRDMIIIRMPKDFPPFPQKLKFREPQREERICLVTTNFQTKSMSSMVSDTSCTFPSGDTIFWKHWIQTKDGQCGSPLVSTRDGFIVGIHSASNFTNTNNYFTSVPKNFMELLTNQEAQQWVSGWRLNADSVLWGGHKVFMVKPEEPFQPVKEATQL [G138T]: the “area with substrate KNLYFQS” value is 0.0571 and the “area with substrate RNLYFQS” value turned out to be 0.0546.
For MGESLFKGPRDYNPISSSICHLTNESDGHTTSLYGIGFGPFIITNKHLFRRNNGTLVVQSLHGVFKVKDTTTLQQHLVDGRDMIIIRMPKDFPPFPQKLKFREPQREERICLVTTNFQTKSMSSMVSDTSCTFPSGDGIFWKHWIQTKDGQCGSPLVSTRDGFIVGIHSASNFTNTNNYFTMVPKNFMELLTNQEAQQWVSGWRLNADSVLWGGHKVFMVKPEEPFQPVKEATQL [S182M], the “area with substrate INLYFQS” value is 0.0256.
Regarding MGESLFKGPRDYNPISSSICHLTNESDGHTTSLYGIGFGPFIITNKHLFRRNNGTLVVQSLHGVFKVKDTTTLQQHLVDGRDMIIIRMPKDFPPFPQKLKFNEPQREERICLVTTNFQTKSMSSMVSDTSCTFPSGDGIFWKHWIQTKDGQCGSPLVSTRDGFIVGIHSASNFTNTNNYFTSVPKNFMELLTNQEAQQWVSGWRLNADSVLWGGHKVFMVKPEEPFQPVKEATQL [R102N], the “area with substrate INLYFQS” value was determined as 0.0449, the “area with substrate MNLYFQS” value was determined as 0.0547 and the “area with substrate SNLYFQS” value was found to be 0.0489.
As to MGESLFKGPRDYNPISSSICHLTNESDGHTTSLYGIGFGPFIITNKHLFRRNNGTLVVQSLHGVFKVKDTTTLQQHLVDGRDMIIIRMPKDFPPFPQKLKFREPQREERICLVTTNFQTKSMSSMVSDTSCTFPSGDGIFWKHWIQTKDGQCGSPLVSTRDGFIVGIHKASNFTNTNNYFTSVPKNFMELLTNQEAQQWVSGWRLNADSVLWGGHKVFMVKPEEPFQPVKEATQL [S169K], the “area with substrate KNLYFQS” value was found to be 0.0726, the “area with substrate TNLYFQS” value worked out at 0.0514 and the “area with substrate WNLYFQS” value came to 0.0288.
As for MGESLFKGPRDYNPISSSICHLTNESDGHTTSLYGIGFGPFIITNKHLFRRNNGTLVVQSLHGVFKVKDTTTLQQHLVDGRDMIIIRMPKTFPPFPQKLKFREPQREERICLVTTNFQTKSMSSMVSDTSCTFPSGDGIFWKHWIQTKDGQCGSPLVSTRDGFIVGIHSASNFTNTNNYFTSVPKNFMELLTNQEAQQWVSGWRLNADSVLWGGHKVFMVKPEEPFQPVKEATQL [D91T], the “area with substrate INLYFQS” value was determined as 0.0636, the “area with substrate MNLYFQS” value was 0.0633, the “area with substrate PNLYFQS” value turned out to be 0.0595 and the “area with substrate YNLYFQS” value was 0.0542.
Regarding MGESLFKGPRDYNPISSSICHLTNESDGHTTSLYGIGFGPFIITNKHLFRRNNGTLVVQSLHGVFKVKDTTTLQQHLVDGRDMIIIRMPKDFPPFPQKLKFREPQREERICLVTTNFQTKSMSSMVSDTSCTFPSGDGIFWKHWIQTKDGQCGNPLVSTRDGFIVGIHSASNFTNTNNYFTSVPKNFMELLTNQEAQQWVSGWRLNADSVLWGGHKVFMVKPEEPFQPVKEATQL [S154N], the “area with substrate INLYFQS” value came to 0.0648, the “area with substrate KNLYFQS” value was 0.0935, the “area with substrate LNLYFQS” value is 0.0856 and the “area with substrate TNLYFQS” value was 0.0799.
Take MGESLFKGPRDYNPISSSICHLTNESDGHTTSLYGIGFGPFIITNKHLFRRNNGTLVVQSLHGVFKVKDTTTLQQHLVDGRDMIIIRMPKDFPPFPQKLKFREPQREERICLVTTNFQTKSMSSMVSDTSCTFPSGDGIFWKHWIQTKDGQCGSPLVSTRDGFIVGIHSASNFTNTNNYFTSVPKNFMELLTNQEAQQQVSGWRLNADSVLWGGHKVFMVKPEEPFQPVKEATQL [W199Q]: the “area with substrate KNLYFQS” value was determined as 0.0383, the “area with substrate SNLYFQS” value came out at 0.0674, the “area with substrate TNLYFQS” value is 0.0656 and the “area with substrate YNLYFQS” value turned out to be 0.0565.
With MGESLFKGPRDYNPISSSICHLTNESDGHTTSLYGIGFGPFIITNKHLFRRNNGTLVVQSLHGVFKVKDTTTLQQHLVDGRDMIIIRMPKDFPPFPQKLKFREPQREERICLVTTNFQTKSMSSMVSDTSCTFPSGDGIFWKHWIQTKDGQCGSPLVSTRDGFIVGIHSASNFTNTNNYFTSVPKNFMELLTNQEAQQWVSIWRLNADSVLWGGHKVFMVKPEEPFQPVKEATQL [G202I], the “area with substrate INLYFQS” value worked out at 0.0294, the “area with substrate KNLYFQS” value turned out to be 0.0647, the “area with substrate NNLYFQS” value is 0.0567 and the “area with substrate PNLYFQS” value came to 0.0708. Also, the “area with substrate SNLYFQS” value worked out at 0.0524 and the “area with substrate WNLYFQS” value came to 0.035.
